Data: ChEMBL document CHEMBL1201862, “PubChem BioAssay data set” (2004)

test system: NCI-H322M; test: growth of human tumour cells (NCI), 48 h

How did the GI50 turn out when `CC1=C(C(=O)OC(C)(C)C)C(c2ccc([N+](=O)[O-])cc2)C(C(=O)OC(C)(C)C)=C(C)N1` was run?
The GI50 was inactive: 18.3 µM.

Which GI50 does the source give for `CCCCCCCCCC[S+]([O-])CC(CO)NC(=O)/C=C/c1c(C)nc(O)nc1O` (stereo unspecified) here?
Its GI50 is active: 0.195 µM.

Which GI50 does the source give for `NS(=O)(=O)c1ccc(NC(=O)Nc2ccccc2F)cc1` here?
Its GI50 is inactive: > 100 µM.

`O=C(O)CN(CC(=O)O)c1ccccc1` was tested. Which GI50 did it give?
The GI50 was inactive: 78.9 µM.

`COC(=O)c1cc(-c2ccc3ccccc3c2)nc(O)c1C#N` was tested. Which GI50 did it give?
The GI50 was inactive: > 100 µM.

Which GI50 does the source give for `O=c1[nH]c2nc(S)nc(S)c2[nH]1` here?
Its GI50 is inactive: > 100 µM.

How did the GI50 turn out when `Cc1cc(C)c2c(SCc3ccc(Cl)cc3Cl)nc(N)nc2n1` was run?
The GI50 was inactive: 65.2 µM.

How did the GI50 turn out when `CNC(=O)CN(CC(=O)NC)C(=O)NC` was run?
Its GI50 is inactive: > 100 µM.

For `CC(=O)NC1(C)CCC(C(C)(C)NC(C)=O)CC1` (stereo unspecified), which GI50 is on record?
The GI50 was inactive: > 100 µM.

Which GI50 does the source give for `C[N+]1(c2ccccc2)C=C(c2ccccc2)SC1=S` (stereo unspecified) here?
Its GI50 is inactive: > 100 µM.

With `O=CC(O)C(O)C(O)COc1cc(CO)cc2c1C(=O)c1ccccc1C2=O` (stereo unspecified) as the compound, how does the GI50 read?
Its GI50 is inactive: > 100 µM.

With `CC(O)=C1C(=O)CCC1=O` as the compound, how does the GI50 read?
The GI50 was inactive: > 100 µM.

Which GI50 does the source give for `CCN(CCCl)c1cccc(NC(=O)c2ccc(C(=O)Nc3cccc(CN(C)C)c3)cc2)c1` here?
The GI50 was active: 0.23 µM.

Which GI50 does the source give for `C=Cc1cncc(C#N)c1CCc1c(C#N)cncc1C=C` here?
The GI50 was inactive: > 10 µM.

How did the GI50 turn out when `Clc1cccc(/C=c2\nc(-c3ccccc3)n3c2nc2ccccc23)c1` was run?
The GI50 was inactive: > 100 µM.

For `c1ccc2c(c1)Cc1c(Cc3csc4ccccc34)ccc3cccc-2c13`, which GI50 is on record?
Its GI50 is inactive: > 100 µM.

`CC(=O)C1=C(O)/C(=C\c2ccco2)OC1=O` was tested. Which GI50 did it give?
The GI50 was inactive: > 10 µM.

With `N=C1NC2(O)C(=O)c3ccccc3C2(O)N1` (stereo unspecified) as the compound, how does the GI50 read?
The GI50 was inactive: > 100 µM.

Which GI50 does the source give for `Cc1cc(C)nc(NS(=O)(=O)c2ccc(NC(=O)c3ccc4nc5ccccc5c(Nc5ccc(S(N)(=O)=O)cc5)c4c3)cc2)n1` here?
Its GI50 is inactive: 67.1 µM.

How did the GI50 turn out when `C[C@@H](Br)[C@@H]1CC[C@H]2c3[nH]c4ccccc4c3CCN2C1` was run?
The GI50 was inactive: 41.5 µM.

How did the GI50 turn out when `COc1ccc(-c2nc(N)c(C#N)c3c2CCSc2ccc(C)cc2-3)cc1OC` was run?
The GI50 was inactive: 44.4 µM.

For `COc1ccc(/C=C/C(=O)c2sc(-c3cccnc3)nc2C)cc1`, which GI50 is on record?
Its GI50 is inactive: 78.3 µM.

`O=C1C=C(c2ccccc2)NC1(c1ccccc1)c1cc(-c2ccccc2)[nH]c1-c1ccccc1` (stereo unspecified) was tested. Which GI50 did it give?
The GI50 was inactive: > 100 µM.

`O=c1cc(-c2ccccc2)oc2cc(OCCSCCCCCCCCCCSCCOc3ccc4c(=O)cc(-c5ccccc5)oc4c3)ccc12` was tested. Which GI50 did it give?
The GI50 was inactive: > 100 µM.

With `Nc1c(Br)cc(-c2nc3ccccc3s2)cc1Br` as the compound, how does the GI50 read?
Its GI50 is inactive: > 100 µM.

Which GI50 does the source give for `O=C(Cc1ccccc1)N/N=C(/c1nc2ccc([N+](=O)[O-])cc2nc1O)C(O)c1ccco1` (stereo unspecified) here?
Its GI50 is inactive: > 100 µM.

With `[N-]=[N+]=Nc1ncnc2c1sc(=S)n2-c1ccccc1` as the compound, how does the GI50 read?
Its GI50 is inactive: > 100 µM.

For `C=CCN(N=O)C(=O)N(CCCC(NC(C)=O)C(=O)NCc1ccccc1)Cc1ccccc1` (stereo unspecified), which GI50 is on record?
The GI50 was inactive: 31.9 µM.

With `S=c1[nH]c2c(Cl)c(Cl)c(Cl)c(Cl)c2[nH]1` as the compound, how does the GI50 read?
The GI50 was inactive: 25.7 µM.

For `NC(=S)N1N=C(c2ccccc2O)CC1c1ccccc1` (stereo unspecified), which GI50 is on record?
The GI50 was inactive: 19 µM.

Which GI50 does the source give for `O=C(O)c1cc2c(cc1CC(Cc1ccc3c(c1)CCC3)C(=O)O)CCC2` (stereo unspecified) here?
Its GI50 is inactive: > 100 µM.

Which GI50 does the source give for `C/C(=N\O)C1CC2C=C(C#N)C1N(Cc1ccccc1)C2` (stereo unspecified) here?
Its GI50 is inactive: 98.2 µM.

`CCC1=C(CC)C1(C#N)[N+](=O)[O-]` was tested. Which GI50 did it give?
Its GI50 is inactive: > 100 µM.

With `N=c1oc2cc(O)ccc2cc1C(=O)Nc1cccc2ccccc12` as the compound, how does the GI50 read?
Its GI50 is inactive: 14 µM.

How did the GI50 turn out when `COC[n+]1cc2cc(OC)c(OC)cc2c2ccc3cc(OC)c(OC)cc3c21` was run?
The GI50 was inactive: > 100 µM.

Which GI50 does the source give for `Cc1c(C#N)c2nnn(-c3cccc(Cl)c3)c(=O)n2c1-c1ccccc1` here?
Its GI50 is inactive: 3.93 µM.

How did the GI50 turn out when `CCOC(=O)Cc1csc(N/N=C2\C(=O)Nc3ccccc32)n1` was run?
Its GI50 is inactive: > 100 µM.

Which GI50 does the source give for `CN(C)CCCN1c2ccc([N+](=O)[O-])cc2CCc2cccc([N+](=O)[O-])c21` here?
The GI50 was inactive: 14.6 µM.

`COc1cc(OC)cc(C(=O)Cc2c(C(=O)c3ccccc3)c3ccccc3n2C(=O)c2ccccc2)c1` was tested. Which GI50 did it give?
Its GI50 is inactive: 50.5 µM.

With `COc1ccc([C@H]2c3cc4c(cc3OC(O)(CO)[C@H]2C(=O)O)OCO4)c(OC)c1.COc1ccc([C@H]2c3cc4c(cc3OC3(O)COC(=O)[C@@H]23)OCO4)c(OC)c1` (stereo partly specified) as the compound, how does the GI50 read?
Its GI50 is inactive: > 100 µM.

`COC(=O)C(=O)CC(=O)CCn1ncc(Cl)c(Cl)c1=O` was tested. Which GI50 did it give?
The GI50 was inactive: 16.3 µM.

With `O=C1Nc2cccc(Cl)c2/C1=C\c1c(Cl)nc2n1CCS2` as the compound, how does the GI50 read?
Its GI50 is inactive: > 100 µM.

How did the GI50 turn out when `COc1ccc(C2S/C(=C\c3cccc(O)c3)C(=O)N2NC(=O)Cc2ccccc2)cc1` (stereo unspecified) was run?
The GI50 was inactive: > 100 µM.

For `COc1ccc2c3c([nH]c(=O)c2c1C(=O)O)-c1ccccc1CC3`, which GI50 is on record?
The GI50 was inactive: > 100 µM.

Which GI50 does the source give for `CN(C)CCNC(=O)c1cc([N+](=O)[O-])ccn1` here?
The GI50 was inactive: 33 µM.

`CCCCCCCCCCCCC(CCCCCCCCCCCC)OP(=O)(O)O` was tested. Which GI50 did it give?
Its GI50 is inactive: > 100 µM.

How did the GI50 turn out when `CCC1CC(C)C(O)/C=C/C=C/CC(C)OC(=O)CC(O)C(OC)C1OC1OC(C)CC(O)(C(C)=O)C1O` (stereo unspecified) was run?
Its GI50 is inactive: > 100 µM.

`O=c1c(O)c(-c2ccccc2)oc2c(CP(=O)(O)O)cccc12` was tested. Which GI50 did it give?
The GI50 was inactive: > 100 µM.

Which GI50 does the source give for `CC(C)N(C(=O)C12C3C4C1C1C2C3C41C#N)C(C)C` (stereo unspecified) here?
The GI50 was inactive: > 100 µM.

With `O=CC(=C(I)I)c1ccccc1` as the compound, how does the GI50 read?
Its GI50 is inactive: 15.5 µM.

How did the GI50 turn out when `O=S(=O)(CCC[C@H]1[C@@H](CCOCc2ccccc2)C2CCCN1O2)c1ccccc1` (stereo partly specified) was run?
Its GI50 is inactive: > 100 µM.

How did the GI50 turn out when `CCOC(=O)CSc1nnc(C(Sc2nc(-c3ccccc3)c(-c3ccccc3)[nH]2)C(C)C)n1-c1ccccc1` (stereo unspecified) was run?
The GI50 was inactive: 15.3 µM.

Which GI50 does the source give for `CCOC(=O)c1nc2cc(C(F)(F)F)ccc2nc1Nc1cc(OC)c(OC)c(OC)c1` here?
The GI50 was inactive: > 100 µM.

`O=c1cc(-c2ccccc2)oc2ccc(Oc3nnnn3-c3ccccc3)cc12` was tested. Which GI50 did it give?
Its GI50 is inactive: > 100 µM.

`CC(=O)OCC1OC(n2c(-c3ccccc3)c(/N=N/c3ccccc3)c(C)c(C#N)c2=S)C(OC(C)=O)C(OC(C)=O)C1OC(C)=O` (stereo unspecified) was tested. Which GI50 did it give?
The GI50 was inactive: > 100 µM.

With `CC(C)CN1CC(C)C(=O)NC1=O` (stereo unspecified) as the compound, how does the GI50 read?
Its GI50 is inactive: > 100 µM.

Which GI50 does the source give for `Cc1nc2c(o1)C(=O)c1ccccc1/C2=N/c1ccc(N2CCOCC2)cc1` here?
Its GI50 is inactive: 16.1 µM.

Which GI50 does the source give for `C=C1C(=O)OC2/C=C(/C)C3(O)OC(C)(CC(OC(=O)C(C)C)C12)CC3OC(C)=O` (stereo unspecified) here?
The GI50 was inactive: 38.9 µM.

For `Cc1nc2c(n1CCN(C)C)C(=O)c1ccccc1C2=O`, which GI50 is on record?
The GI50 was inactive: 23.2 µM.

Which GI50 does the source give for `Cc1cccc2c(=O)c3cccc(CC(=O)O)c3oc12` here?
The GI50 was inactive: > 100 µM.

With `CCCCCCCCCCCCCCCC(=O)N(CCCCCCCCCCC(=O)O)CC(O)C(O)C(OC1OC(CO)C(O)C(O)C1O)C(O)CO` (stereo unspecified) as the compound, how does the GI50 read?
Its GI50 is inactive: 38.5 µM.

How did the GI50 turn out when `C=C[C@@]1(C)CCC2(O)C(CCC3C2(C)CCC[C@@]3(C)COC(=O)CC(=O)OC)C1` (stereo partly specified) was run?
The GI50 was inactive: 35 µM.

`CC(C)(C)OC(=O)C1CC[C@@H](CC(=O)Oc2ccc([N+](=O)[O-])cc2)N1` (stereo partly specified) was tested. Which GI50 did it give?
Its GI50 is inactive: > 100 µM.

How did the GI50 turn out when `COc1cc2c(c(OC)c1OC)-c1ccc(SC)c(=O)cc1[C@@H](NCc1cccc(C#N)c1)CC2` was run?
The GI50 was active: 0.0371 µM.

With `COc1ccc(CCc2cc(OC)c(OC)c(OC)c2)cc1` as the compound, how does the GI50 read?
Its GI50 is active: 0.14 µM.

For `CC(=O)c1cc2c(s1)C(=O)c1ccccc1C2=O`, which GI50 is on record?
The GI50 was inactive: 4.93 µM.

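A five-concentration, 48-hour dose response in 96-well plates underlies each endpoint, interpolated linearly between surrounding concentrations. GI50 = concentration required for 50% inhibition of growth.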 Calls of active or inactive are those of the source. Cut-off read from the data, not from the text of the source: active = GI50 up to about 1.1 µM and inactive = higher.
